Values joined by “and” are separate entries in the source; they are usually repeats but may differ in a detail not shown here. Equal entries are not always repeated.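 A five-concentration, 48-hour dose response in 96-well plates underlies each endpoint, interpolated linearly between surrounding concentrations. Here, GI50 denotes the concentration required for 50% inhibition of growth. Definition used: TGI = concentration required for complete inhibition of growth.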 A value given as a limit tells only on which side of the number the result lay.

This test deals with NCI-H322M lung. The experiment in a line: growth of human tumour cells (NCI), 48 h.
As for `C=C(CNCCO)[C@@H]1CC[C@]2(CO)CC[C@]3(C)[C@H](CC[C@@H]4[C@@]5(C)CCC(N)C(C)(C)[C@@H]5CC[C@]43C)[C@@H]12` (stereo partly drawn), the GI50 was 3.3 µM and the TGI worked out at 12.6 µM.

As to `N#CC(C#N)=C1C(=Cc2ccc(OCCCCCCCCCCSSCCCCCCCCCCOc3ccc(C=C4C(=C(C#N)C#N)c5ccccc5C4=C(C#N)C#N)cc3)cc2)C(=C(C#N)C#N)c2ccccc21`, the TGI was 35.3 µM.

Take `CNC(=O)c1ccccc1Nc1nc(Nc2ccc(N3CCOCC3)cc2OC)ncc1Cl`: the GI50 was 0.703 µM and the TGI amounted to 4.93 µM.

On to `CSc1ccc(/C=C2\CN(C)C/C(=C\c3ccc(SC)cc3)C2=O)cc1`, for which the TGI is more than 100 µM.

The compound `O=C1C2=C(SCCS2)C(=O)c2ccccc21` had a TGI of 3.17 µM.

`O=C1NC(N/N=C/C(O)C(O)C(O)C(O)CO)=N/C1=C\c1ccco1` (stereo not drawn) had a TGI of more than 100 µM.

In turn, `O=C1NC(N/N=C/c2ccccc2)=N/C1=C\c1ccco1` registered a TGI of more than 100 µM.

For the compound `CN1CCc2cc3c(c4c2C1C(O)c1ccccc1-4)OCO3` (stereo not drawn), the TGI was more than 100 µM.

For the compound `c1cc2c(cc1NC1=NCCO1)CCC2`, the TGI was more than 10 µM.

`C/C=C/C(C#N)(/C=C/c1ccccc1)OP1(=O)OC(c2ccccc2)C(C)N1C` (stereo not drawn) returned a TGI of 36.7 µM.

For `CCOC(=O)C1=C(C)CC2C(=O)OC(=O)C2C1(C)C` (stereo not drawn), the TGI was more than 100 µM.

Consider `NC(CSC(c1ccccc1)(c1ccccc1)c1ccc2c(c1)OCO2)C(=O)O` (stereo not drawn), for which the GI50 is 0.515 µM and the TGI is more than 100 µM.

`C=C(C)[C@@H]1CCC2=C[C@@H](OC2=O)[C@@H](C(=C)C)C2=CC(C(=O)O)=C(C1)O2` displayed a TGI of more than 100 µM.

`C1=CC2C=CC(C=C1)P2c1ccccc1` (stereo not drawn) registered a TGI of more than 100 µM.

Consider `COc1ccc2c(c1)CC[C@@H]1[C@@H]2CC[C@]2(C)C(=O)/C(=C/c3ccc(N(C)C)cc3)C[C@@H]12`, for which the TGI was more than 100 µM.

For the compound `S=c1nc2sc3c(c2c(Nc2ccc(Cl)cc2)[nH]1)CCCC3`, the TGI was more than 100 µM.

The compound `CSCCCN(CCCSC)CCCSC` gave a TGI of more than 100 µM.

`O=C(O)c1cc(C(=O)O)cc(N2C(=O)c3ccccc3C2=O)c1` showed a TGI of more than 100 µM.

With `CC1OC(OC2C(O[C@H]3CC[C@@H]4C(=CC[C@@H]5[C@@]4(C)C(=O)C[C@]4(C)[C@@H]([C@H](C)CC[C@@H](O)C(C)(C)O)CC[C@@]54C)C3(C)C)OC(CO)C(O)C2O)C(O)C(O)C1O` (stereo partly drawn), the TGI was more than 100 µM.

`CN(C)CCCN1c2ccc([N+](=O)[O-])cc2CCc2cccc([N+](=O)[O-])c21` registered a TGI of 28 µM.

For `CC(=O)Oc1c(C)c2c(c3ncccc13)OC(C)C2` (stereo not drawn), the TGI is 33.9 µM.

In the case of `NC(N)=Nc1ccc(-c2ccc(N=C(N)N)cc2)cc1`, the TGI is more than 100 µM.

`Cc1c(-c2ccc(O)cc2)n(CCCCCCNCCOC(=O)NCCCc2ccc(N(CCCl)CCCl)cc2)c2ccc(O)cc12` returned a TGI of 5.02 µM.

Take `O=C1NNC(=O)c2ccccc2SSc2ccccc2C(=O)NNC(=O)c2ccccc2SSc2ccccc21`: the GI50 is 15 µM; the TGI was 50 µM and > 100 µM.

For the origin of these results see PubChem BioAssay (NCI).
